The whole screen tested about 150,000 compounds, of which about 6,500 (4.3%) were called active. Inconclusive means that the source gave no clear call. Such entries were picked first, then a sample of the others. Calls follow the shape of the dose curve; as a rule, active = well fitted inhibition curve with a large enough effect (not every such curve was filed as active); inconclusive = small, poorly fitted or top-dose-only effect, or another doubt; inactive = no such curve, though single readings can be large or run the other way. Potencies of inconclusive entries are left out as doubtful fits.
Molecular target: 15-hydroxyprostaglandin dehydrogenase [NAD(+)] (Homo sapiens) (UniProt P15428)
UniProt P15428, sequence (P15428 whole entry, looked up): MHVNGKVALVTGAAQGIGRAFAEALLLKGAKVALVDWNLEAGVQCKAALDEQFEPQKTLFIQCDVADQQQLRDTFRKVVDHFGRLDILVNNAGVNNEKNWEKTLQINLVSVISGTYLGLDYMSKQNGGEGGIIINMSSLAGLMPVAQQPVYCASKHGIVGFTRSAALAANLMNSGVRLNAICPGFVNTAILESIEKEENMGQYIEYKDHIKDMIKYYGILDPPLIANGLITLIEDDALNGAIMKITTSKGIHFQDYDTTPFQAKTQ
Assay: qHTS Assay for Inhibitors of HPGD (15-Hydroxyprostaglandin Dehydrogenase)
Settings: purified HPGD, NADH fluorescence kinetic, PGE2 substrate; activity change, negative = inhibition: hits give low values
Outline: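 20 nM HPGD preincubated 15 min at room temperature with compound in 50 mM Tris-HCl pH 8, 0.01% Tween 20. Started with 1 mM NAD+ and 30 uM prostaglandin E2; NADH fluorescence (360/450 nm) read 5 times over 30-s intervals, last minus first.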
% is scaled to controls: 0 for no effect and ±100 for the full control effect; potency is read from the fitted curve at half-maximal effect; tags tell the direction and shape of the fitted curve.

Question: Which activity change, negative = inhibition does the source give for CC1CN(C(=O)N(C)C)CCN1C(=O)N(C)C (stereo not drawn) here?
Answer: inactive: -4.22%

Question: For C/C(N)=C(/C#N)C(=O)CSc1nnc(Nc2cccc(C)c2C)s1, which Potency is on record?
Answer: active: 28.2 µM

Question: For COCc1cc(C)nc(N2CCCCC2)c1C#N, which Potency is on record?
Answer: inconclusive [inhibitor, partial curve]

Question: With COc1ccc(N=c2scc(-c3ccc(S(=O)(=O)N4CCOCC4)cc3)n2CCCO)cc1 as the molecule, how does the activity change, negative = inhibition read?
Answer: inactive: -13%

Question: How did the Potency turn out when CCOc1c(Br)cc(CNc2ccc3c(c2)OCCO3)cc1OC was run?
Answer: inconclusive [inhibitor, single point]

Question: O=[N+]([O-])c1ccc(O)c(/C=N/n2cnc3ccccc32)c1 was tested. Which Potency did it give?
Answer: active: 14.1 µM

Question: Cc1ccc(N=Nc2c(=O)[nH]n3c(=O)cc(C)[nH]c23)cc1 was tested. Which Potency did it give?
Answer: active: 20 µM

Question: For CN1CCN(C(=O)c2cc(-c3ccco3)on2)CC1, which Potency is on record?
Answer: active: 31.6 µM

Question: COc1ccc(OC)c(-n2c(-c3cccc(O)c3)n[nH]c2=S)c1 was tested. Which Potency did it give?
Answer: inconclusive [inhibitor, partial curve]

Question: O=C(C1CCCO1)N1CCN(c2c3c(nc4cc(-c5ccc(F)cc5)nn24)CCC3)CC1 (stereo not drawn) was tested. Which Potency did it give?
Answer: inconclusive [inhibitor, single point]

Question: COCCNC(=O)c1ccccc1NS(=O)(=O)c1ccc(C)c([N+](=O)[O-])c1 was tested. Which activity change, negative = inhibition did it give?
Answer: inactive: 1.9%

Question: With COc1cccc(-c2nccc(NCc3cccc(C)c3)n2)c1 as the molecule, how does the activity change, negative = inhibition read?
Answer: inactive: -11.4%

Question: CCc1c(C)sc(NC(=O)c2ccc(Br)o2)c1C(=O)OC was tested. Which Potency did it give?
Answer: inconclusive [inhibitor, partial curve]

Question: With COc1ccc(-c2noc(CCC(=O)NCCN(C)Cc3ccccc3)n2)cc1 as the molecule, how does the Potency read?
Answer: active: 15.8 µM

Question: For O=C(CSc1nnc(-c2ccccc2)c(-c2ccccc2)n1)N1CCOCC1, which activity change, negative = inhibition is on record?
Answer: inactive: -28.4%

Question: Which Potency does the source give for C=CCNc1oc(Cc2cccc3ccccc23)nc1C#N here?
Answer: inconclusive [inhibitor, partial curve]

Question: How did the Potency turn out when CC1C(C#N)=C(N)OC2=C1C(=O)CC(C)(C)C2 (stereo not drawn) was run?
Answer: inconclusive [inhibitor, partial curve]

Question: For COc1cc2nc(-c3ccc(Br)o3)oc(=O)c2cc1OC, which Potency is on record?
Answer: inconclusive [inhibitor, partial curve]

Question: With COc1ccc(N2C(=O)C(Cl)=C(Nc3ccccc3O)C2=O)cc1 as the molecule, how does the Potency read?
Answer: active: 14.1 µM

Question: With Cc1cc(NC(=O)COC(=O)COc2cccc3c2OC(C)(C)C3)no1 as the molecule, how does the activity change, negative = inhibition read?
Answer: inactive: -0.0375%

Question: For Cc1c(Br)c(-c2n[nH]c(=S)n2Cc2ccco2)nn1C, which Potency is on record?
Answer: inconclusive [inhibitor, single point]

Question: CCNc1ncc2nc(-c3ccc(Cl)cc3)c(=O)n(C3CC3)c2n1 was tested. Which Potency did it give?
Answer: inconclusive [inhibitor, partial curve]

Question: For COc1cc(C2NC(C(=O)O)Cc3c2[nH]c2ccccc32)cc(OC)c1OC (stereo not drawn), which activity change, negative = inhibition is on record?
Answer: inactive: -1.89%

Question: With COc1cccc(Nc2nnc(SCN3C(=O)c4ccccc4C3=O)s2)c1 as the molecule, how does the activity change, negative = inhibition read?
Answer: inactive: -9.15%

Question: Which Potency does the source give for Cc1ccc(C)c(Cn2nnc3c(=O)[nH]c(C4CCCN(C(=O)CC(C)C)C4)nc32)c1 (stereo not drawn) here?
Answer: active: 10 µM

Question: Which Potency does the source give for CC1=CC2=NC(=O)/C(=C\c3cc(C)n(-c4ccc(F)cc4)c3C)C(=N)N2O1 here?
Answer: inconclusive [inhibitor, single point]

Question: For O=C(/C=C\c1cn(-c2ccccc2)nc1-c1cccs1)N1CCOCC1, which Potency is on record?
Answer: inconclusive [inhibitor, single point]

Question: Which activity change, negative = inhibition does the source give for CSc1nn(-c2ccc(C(=O)OCC(=O)NC(=O)NC(C)C)cc2)c(=S)s1 here?
Answer: inactive: -9.92%

Question: O=C(CC1CCCCC1)NCC1CCCO1 (stereo not drawn) was tested. Which Potency did it give?
Answer: active: 14.1 µM

Question: With C=CCN1C(=O)/C(=C\c2ccco2)C(C(=O)OC)=C1C as the molecule, how does the Potency read?
Answer: active: 31.6 µM

Question: With COc1ccc(NC2=CC(c3ccc(F)cc3)N(c3ccc(OC)cc3)C2=O)cc1 (stereo not drawn) as the molecule, how does the Potency read?
Answer: inconclusive [inhibitor, partial curve]

Question: How did the Potency turn out when CC(=O)CCc1c(C)[nH]c2ccc(NC(C)=O)cc2c1=O was run?
Answer: inconclusive [inhibitor, partial curve]

Question: Which Potency does the source give for COc1ccc(/C=N/NC(=O)Nc2cccc3nsnc23)cc1 here?
Answer: inconclusive [inhibitor, partial curve]

Question: COc1ccccc1NC(=O)c1oc2ccccc2c1NC(=O)c1ccco1 was tested. Which Potency did it give?
Answer: inconclusive [inhibitor, partial curve]

Question: For Cc1nc(NCCO)c(C#N)c2c1COC(C)(C)C2, which Potency is on record?
Answer: inconclusive [inhibitor, partial curve]

Question: For S=C(NCC1CCCO1)Nc1ccccc1Cl (stereo not drawn), which Potency is on record?
Answer: active: 12.6 µM

Question: For CCN(CC)c1ccc(C(=S)N2CCN(c3ccccc3)CC2)cc1, which Potency is on record?
Answer: inconclusive [inhibitor, single point]

Question: For Cc1cc2cc(CN(Cc3ccc4c(c3)OCO4)Cc3nnnn3C3CCCC3)c(=O)[nH]c2cc1C, which activity change, negative = inhibition is on record?
Answer: inactive: -26.3%

Question: Cc1c(-c2ccc(Cl)cc2)noc1C1CCN(CCc2ccccc2)CC1 was tested. Which activity change, negative = inhibition did it give?
Answer: inactive: 0.183%

Question: Cc1cccn2cc(-c3ccc(S(=O)(=O)N4CCOCC4)cc3)nc12 was tested. Which Potency did it give?
Answer: inconclusive [inhibitor, partial curve]

Question: For COc1ccc(NC(=O)CCS(=O)(=O)c2cccc3nonc23)c(OC)c1, which activity change, negative = inhibition is on record?
Answer: inactive: -0.746%

Question: Cc1nn(C)c(C)c1N=Cc1c(O)ccc2ccccc12 was tested. Which activity change, negative = inhibition did it give?
Answer: inactive: -13%

Question: Cc1ccc(-c2csc(NC(=O)CSc3nc(C)cc(=O)[nH]3)n2)cc1 was tested. Which Potency did it give?
Answer: active: 28.2 µM

Question: For N#Cc1nc(-c2cccs2)oc1NCCN1CCOCC1, which Potency is on record?
Answer: inconclusive [inhibitor, partial curve]

Question: How did the Potency turn out when CCOC(=O)c1sc(Nc2nc3cc4c(cc3s2)OCO4)cc1C was run?
Answer: inconclusive [inhibitor, partial curve]

Question: With COc1ccc(C(=O)NNC2=CC(=O)CC(C)(C)C2)cc1 as the molecule, how does the activity change, negative = inhibition read?
Answer: inactive: 0.0092%

Question: With CC(=O)c1ccc(N2CCN(C(=O)c3ccco3)CC2)c(F)c1 as the molecule, how does the Potency read?
Answer: active: 15.8 µM

Question: Which Potency does the source give for Cc1noc(NS(=O)(=O)c2ccc(N/C=C\C(=O)c3ccc4c(c3)OCO4)cc2)c1C here?
Answer: inconclusive [inhibitor, partial curve, poor fit]

From PubChem BioAssay AID894 (National Center for Advancing Translational Sciences (NCATS), 2007)
